{
  "source": "the BET-seq Pho4 binding data (Le et al. 2018)",
  "note": "The other results are listed elsewhere or left out. The energies were worked out here from pooled read counts, against the library average; single values are noisy.",
  "data": [
    {"biological_target": "T1, Pho4 (S. cerevisiae) (UniProt P07270)", "T1 sequence": "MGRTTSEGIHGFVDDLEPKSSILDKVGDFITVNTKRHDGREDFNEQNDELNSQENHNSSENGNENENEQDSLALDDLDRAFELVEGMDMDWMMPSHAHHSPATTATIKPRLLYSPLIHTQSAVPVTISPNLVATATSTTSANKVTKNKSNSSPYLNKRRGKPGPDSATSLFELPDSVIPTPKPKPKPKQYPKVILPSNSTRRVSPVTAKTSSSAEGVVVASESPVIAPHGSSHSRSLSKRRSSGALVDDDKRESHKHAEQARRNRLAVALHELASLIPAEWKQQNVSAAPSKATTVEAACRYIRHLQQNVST", "assay": "relative binding free energy (BET-seq); higher = weaker binding", "details": "reference: library average", "units": {"relative binding free energy": "kcal/mol"}, "values": [
      {"sequence": "CGAGGCACGTGGTTCG", "relative binding free energy": -0.08},
      {"sequence": "AGGTCCACGTGGTAGG", "relative binding free energy": -0.06},
      {"sequence": "ATGCTCACGTGGATTG", "relative binding free energy": 0.14},
      {"sequence": "CGTAGCACGTGAGGAT", "relative binding free energy": 0.24},
      {"sequence": "CATGTCACGTGCATTG", "relative binding free energy": 0.18},
      {"sequence": "ATGGGCACGTGTCTGA", "relative binding free energy": 0.03},
      {"sequence": "GTGATCACGTGGTAGC", "relative binding free energy": 0.03},
      {"sequence": "GGTCGCACGTGACGTG", "relative binding free energy": 0.21},
      {"sequence": "AGGTACACGTGAAGGA", "relative binding free energy": 0.3},
      {"sequence": "TGTCGCACGTGAAAGG", "relative binding free energy": 0.25},
      {"sequence": "TATTACACGTGAGTTA", "relative binding free energy": 0.33},
      {"sequence": "CTTTTCACGTGTCTTG", "relative binding free energy": 0.29},
      {"sequence": "TGAAGCACGTGCGGTG", "relative binding free energy": -0.19},
      {"sequence": "ATGGTCACGTGAGTGT", "relative binding free energy": 0.23},
      {"sequence": "TTTTTCACGTGCGTGG", "relative binding free energy": 0.23},
      {"sequence": "CTTGTCACGTGGGCTT", "relative binding free energy": -0.16},
      {"sequence": "GAGGGCACGTGATTGA", "relative binding free energy": 0.1},
      {"sequence": "CGGGACACGTGGGCGT", "relative binding free energy": -0.18},
      {"sequence": "GATTTCACGTGTGCGT", "relative binding free energy": 0.34},
      {"sequence": "GCATTCACGTGGTTTG", "relative binding free energy": 0.2},
      {"sequence": "AGGAACACGTGGTGAA", "relative binding free energy": 0.06},
      {"sequence": "CAGGTCACGTGAATGG", "relative binding free energy": 0.26},
      {"sequence": "TAGTTCACGTGAGCTG", "relative binding free energy": 0.44},
      {"sequence": "CAACGCACGTGTGGGT", "relative binding free energy": -0.07},
      {"sequence": "TGTGACACGTGGTCGC", "relative binding free energy": -0.06},
      {"sequence": "TGGAGCACGTGGTCAG", "relative binding free energy": -0.22},
      {"sequence": "CGGGTCACGTGATGGC", "relative binding free energy": 0.31},
      {"sequence": "TTAGCCACGTGCGGGG", "relative binding free energy": -0.03},
      {"sequence": "GTAGACACGTGCTTGT", "relative binding free energy": 0.06},
      {"sequence": "TAGGCCACGTGAGGGT", "relative binding free energy": 0.11},
      {"sequence": "TTTTGCACGTGTAGAC", "relative binding free energy": 0.12},
      {"sequence": "GGGTTCACGTGACGAG", "relative binding free energy": 0.49},
      {"sequence": "ATTTTCACGTGTGGCG", "relative binding free energy": 0.32},
      {"sequence": "TGACGCACGTGGTGTA", "relative binding free energy": -0.24},
      {"sequence": "CTTTGCACGTGGGAAA", "relative binding free energy": 0.01},
      {"sequence": "ATGAACACGTGTGGGA", "relative binding free energy": 0.14},
      {"sequence": "GGTGCCACGTGGCGGA", "relative binding free energy": -0.07},
      {"sequence": "TTGATCACGTGGAGGA", "relative binding free energy": 0.18},
      {"sequence": "ATTTCCACGTGAGGGT", "relative binding free energy": 0.4},
      {"sequence": "ATTTTCACGTGCGCGG", "relative binding free energy": 0.35},
      {"sequence": "AGGTTCACGTGCGATT", "relative binding free energy": 0.3},
      {"sequence": "AGTGCCACGTGATAGG", "relative binding free energy": 0.16},
      {"sequence": "TTGGCCACGTGTAGGA", "relative binding free energy": -0.02},
      {"sequence": "TTATGCACGTGTAGAA", "relative binding free energy": 0.03},
      {"sequence": "TGGGGCACGTGGGAGT", "relative binding free energy": -0.12},
      {"sequence": "GTGTACACGTGGTGGG", "relative binding free energy": 0.06},
      {"sequence": "TGTAACACGTGGGGGG", "relative binding free energy": 0},
      {"sequence": "GTAGGCACGTGGTAAG", "relative binding free energy": -0.05},
      {"sequence": "AGTGGCACGTGTTAAT", "relative binding free energy": 0.04},
      {"sequence": "TGGGTCACGTGTACTA", "relative binding free energy": 0.03},
      {"sequence": "TGCCTCACGTGTTTGT", "relative binding free energy": 0.18},
      {"sequence": "CGAGGCACGTGTGAGC", "relative binding free energy": 0.02},
      {"sequence": "TAGGGCACGTGTTGGT", "relative binding free energy": -0.09},
      {"sequence": "CGCAGCACGTGAGGTT", "relative binding free energy": 0.25},
      {"sequence": "GGGGCCACGTGGCTGT", "relative binding free energy": -0.16},
      {"sequence": "TGATGCACGTGGCATG", "relative binding free energy": -0.24},
      {"sequence": "GCTATCACGTGGTCGG", "relative binding free energy": 0.24},
      {"sequence": "TATAACACGTGGAGGT", "relative binding free energy": -0.03},
      {"sequence": "GTGTACACGTGGGAGC", "relative binding free energy": -0.09},
      {"sequence": "ATTTTCACGTGAGGGG", "relative binding free energy": 0.34},
      {"sequence": "TTTCACACGTGTTATT", "relative binding free energy": 0.02},
      {"sequence": "TGGTGCACGTGAAGGC", "relative binding free energy": 0.34},
      {"sequence": "TGGCTCACGTGGTTGT", "relative binding free energy": 0.08}
    ]}
  ]
}
